Assay results reported in PubChem BioAssay AID485294 (National Center for Advancing Translational Sciences (NCATS), 2010).
Out of some 370,000 compounds screened, about 150 (0.041%) were called active. This list was built around the results that the source calls inconclusive (neither active nor inactive); the mix of calls is not that of the screen. The call rests on the fitted dose curve; in most records, active means well fitted inhibition curve with a large enough effect; inconclusive means small, poorly fitted or top-dose-only effect; inactive means flat fitted curve, though single readings scatter. Potencies of inconclusive entries are left out as doubtful fits.

What follows are molecules tested against Beta-lactamase (Escherichia coli (strain K12)) (UniProt P00811) (assay: qHTS Inhibitors of AmpC Beta-Lactamase (assay with detergent)). Details: AmpC hydrolysis of nitrocefin, absorbance 480 nm, 0.01% Triton; activity change, negative = inhibition: at 114 µM (top of the series).
Outline: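 AmpC (5.3 nM in the dispensed reagent) in 20 mM phosphate pH 7.0 with 0.01% (detergent screen) or 0.0001% Triton X-100 was preincubated with compounds for 15 min at room temperature. Nitrocefin was then added from an 800 uM solution, and hydrolysis was followed at 480 nm.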
Further: nearly all actives have a fitted effect of over 25% in size.
Potency means the concentration at half of the fitted maximal effect; tags describe the fitted curve by direction and shape.
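Wherever activity change, negative = inhibition is given: 0% = no-compound wells and -100% = no-enzyme wells.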

Sequence of UniProt P00811 (P00811 whole entry, looked up): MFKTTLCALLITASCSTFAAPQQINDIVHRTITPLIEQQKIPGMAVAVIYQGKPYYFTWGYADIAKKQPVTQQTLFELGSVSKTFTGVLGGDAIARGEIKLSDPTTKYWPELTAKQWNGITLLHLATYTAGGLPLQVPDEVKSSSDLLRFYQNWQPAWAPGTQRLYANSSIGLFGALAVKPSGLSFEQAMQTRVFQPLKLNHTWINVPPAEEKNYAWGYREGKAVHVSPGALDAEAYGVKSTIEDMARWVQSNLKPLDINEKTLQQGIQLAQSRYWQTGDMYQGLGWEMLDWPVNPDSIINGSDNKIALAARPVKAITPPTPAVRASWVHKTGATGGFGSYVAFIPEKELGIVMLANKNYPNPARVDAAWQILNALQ

| Structure (SMILES) | Potency | activity change, negative = inhibition |
| --- | --- | --- |
| COc1cc(NS(=O)(=O)c2ccc(NC(=O)C34CC5CC(CC(C5)C3)C4)cc2)ncn1 | inconclusive [inhibitor, full curve, poor fit] |  |
| COc1ccc(Cc2nc(-c3cccs3)no2)cc1OC | inconclusive [inhibitor, full curve, poor fit] |  |
| Cc1ccc(C#N)c(SCC(=O)Nc2nccs2)n1 |  | inactive: -0.746% |
| COc1ccc(S(=O)(=O)N2CCOC2CNC(=O)C(=O)NCCc2ccc(S(N)(=O)=O)cc2)cc1 (centres undefined) | inconclusive [inhibitor, full curve] |  |
| O=C(c1ccccn1)N1N=C2/C(=C/c3ccc(F)cc3)CCCC2C1c1ccc(F)cc1 (centres undefined) | inconclusive [inhibitor, partial curve, poor fit] |  |
| Cc1ccc(NC(=O)COC(=O)/C(=C/c2cccs2)c2cccs2)cc1S(=O)(=O)N(C)C |  | inactive: -12.6% |
| CCc1ccc(NCc2cc3c(C)nn(-c4ccccc4)c3[nH]c2=O)cc1 |  | inactive: -6.38% |
| CN1C(C(=O)NCc2ccco2)CC2Cn3c(nc4cc(Cl)c(Cl)cc43)C21 (centres undefined) |  | inactive: -5.19% |
| Cc1ccc(C(=O)NNC(=O)c2ccco2)cc1 |  | inactive: -4.99% |
| Cc1cc(C)c(NC(=O)c2sc3nc(C)cc(C)c3c2NC(=O)c2ccccc2)c(C)c1 |  | inactive: -0.763% |
| O=C(NC12CC3CC(CC(C3)C1)C2)C1=COCCO1 | inconclusive [inhibitor, full curve] |  |
| CCC(C)NC(=O)CSC1=Nc2ccccc2C2=NC(CCC(=O)NCc3ccco3)C(=O)N12 (centres undefined) | inconclusive [inhibitor, full curve, poor fit] |  |
| CCOC(=O)Nc1ccc(OC)c([N+](=O)[O-])c1 | inconclusive [inhibitor, full curve] |  |
| Cc1nc2ccccc2c(=O)n1-c1ccc(F)c(NC(=O)c2cccs2)c1 | inconclusive [inhibitor, full curve] |  |
| COC(=O)c1sccc1N/N=C/c1ccc(OC)c(OC)c1OC |  | inactive: -14.1% |
| CN1C(=O)/C(=C\c2ccc(N3CCCCC3)o2)C(=O)NC1=S | inconclusive [inhibitor, full curve, poor fit] |  |
| COc1cccc(CN(C)C(=O)c2cccc(S(=O)(=O)NCc3ccccc3)c2)c1OC | inconclusive [inhibitor, full curve, poor fit] |  |
| CC1Cc2ccccc2N1C(=O)COC(=O)c1cccnc1Cl (centres undefined) | inconclusive [inhibitor, partial curve, poor fit] |  |
| COC(=O)C1CSc2[nH]c(=O)sc2C1c1ccccc1 (centres undefined) | inconclusive [inhibitor, single point] |  |
| O=C(c1ccccc1)N1CCN(CCc2ccncc2)CC1 |  | inactive: 21.2% |
| Cc1ccc(C)c(OCCC(=O)OCC(=O)NCc2ccc(F)cc2)c1 |  | inactive: -7.32% |
| Cn1c(CCN2CCOCC2)nc2cc(NC(=O)COc3ccc(Cl)cc3)ccc21 | inconclusive [inhibitor, full curve, poor fit] |  |

| Structure (SMILES) | Potency | activity change, negative = inhibition |
| --- | --- | --- |
| CCOc1ccc(NC(=O)c2cnc3scc(C)n3c2=O)cc1 | inconclusive [inhibitor, full curve] |  |
| COc1ccc(NS(=O)(=O)c2cc(NC(=O)C3CCCO3)ccc2N2CCCC2)cc1 (centres undefined) |  | inactive: 0.787% |
| COc1ccc(-c2cc3ccc(O)cc3oc2=O)cc1 | inconclusive [inhibitor, partial curve, poor fit] |  |
| CCOP(=O)(OCC)C(NC(=O)c1ccc(C)cc1)=C(Cl)Cl | inconclusive [inhibitor, partial curve] |  |
| Cc1nc(N)sc1-c1nnc(SCC(=O)Nc2nccs2)n1C | inconclusive [inhibitor, partial curve, poor fit] |  |
| CCCCC(=O)Nc1sc2c(c1-c1nc3ccccc3s1)CCN(C(C)=O)C2 | inconclusive [inhibitor, full curve, poor fit] |  |
| Cc1ccc(NC(=O)CCSc2nnnn2-c2ccc3c(c2)OCO3)cc1C | inconclusive [inhibitor, full curve] |  |
| CCN1CCN(C(=O)C2=C(C(=O)O)CCCC2)CC1 | inconclusive [inhibitor, single point] |  |
| CCC(C)c1ccc(S(=O)(=O)Nc2cccnc2)cc1 (centres undefined) |  | inactive: -0.893% |
| COc1ccccc1-n1c(SCC(=O)c2ccc(O)cc2O)nc2cc([N+](=O)[O-])ccc21 | inconclusive [inhibitor, full curve, poor fit] |  |
| Cc1noc(C)c1COc1ccc(C(=O)OC(C)C(=O)Nc2ccc(N3CCOCC3)cc2)cc1 (centres undefined) | inconclusive [inhibitor, full curve, poor fit] |  |
| Cc1cccc(NC(=O)C2CCCN(S(=O)(=O)c3c(C)nn(C)c3C)C2)n1 (centres undefined) | inconclusive [inhibitor, full curve] |  |
| COc1cc2nc(SCc3ccc(F)cc3)n(Cc3cccs3)c(=N)c2cc1OC | inconclusive [inhibitor, full curve, poor fit] |  |
| Cc1ccc(N2CC(C(N)=O)CC2=O)cc1C (centres undefined) | inconclusive [inhibitor, partial curve] |  |
| COc1ccc(S(=O)(=O)Nc2cccc(-c3ccc(N4CCCC4)nn3)c2)c(OC)c1 |  | inactive: -0.556% |
| COc1cc(CN2CCC(C(=O)N3CCN(c4ccccc4F)CC3)CC2)ccc1O | inconclusive [inhibitor, full curve, poor fit] |  |
| CCCCn1c(C(C)NC(=O)CCC)nc2ccccc21 (centres undefined) | inconclusive [inhibitor, full curve] |  |
| O=C(COC(=O)/C=C/c1ccco1)NCc1ccc2c(c1)OCO2 |  | inactive: 4.14% |
| COc1cc(/C=C2/SC(=S)N(CC(=O)Nc3cccnc3)C2=O)cc(OC)c1OC | inconclusive [inhibitor, full curve, poor fit] |  |
| Cc1cc(-c2ccccc2)nc2cc(C(=O)NCCCn3ccnc3)nn12 |  | inactive: 2.2% |
| Cc1cccc2cc(COC(=O)c3cccs3)c(=O)[nH]c12 |  | inactive: -3.59% |
| CC1CC(=O)c2cnc(NCC3CCCO3)nc2C1 (centres undefined) |  | inactive: -3.97% |
